Measured values: article PMC4336329 (PLoS ONE, 2015)
Screen size: about 310,000 compounds; about 14,000 (4.5%) showed an effect of 50% or more. Effects have a minus sign here. The list shows a part of the results.

target: human ether-à-go-go-related gene (hERG) potassium channel (human, UniProt Q12809); assay: primary screen, population patch clamp on CHO cells stably expressing hERG
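Further: peak tail current of the secondary pulse compared with the same well before compound.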

Sequence of human ether-à-go-go-related gene (hERG) potassium channel (Q12809 whole entry, looked up): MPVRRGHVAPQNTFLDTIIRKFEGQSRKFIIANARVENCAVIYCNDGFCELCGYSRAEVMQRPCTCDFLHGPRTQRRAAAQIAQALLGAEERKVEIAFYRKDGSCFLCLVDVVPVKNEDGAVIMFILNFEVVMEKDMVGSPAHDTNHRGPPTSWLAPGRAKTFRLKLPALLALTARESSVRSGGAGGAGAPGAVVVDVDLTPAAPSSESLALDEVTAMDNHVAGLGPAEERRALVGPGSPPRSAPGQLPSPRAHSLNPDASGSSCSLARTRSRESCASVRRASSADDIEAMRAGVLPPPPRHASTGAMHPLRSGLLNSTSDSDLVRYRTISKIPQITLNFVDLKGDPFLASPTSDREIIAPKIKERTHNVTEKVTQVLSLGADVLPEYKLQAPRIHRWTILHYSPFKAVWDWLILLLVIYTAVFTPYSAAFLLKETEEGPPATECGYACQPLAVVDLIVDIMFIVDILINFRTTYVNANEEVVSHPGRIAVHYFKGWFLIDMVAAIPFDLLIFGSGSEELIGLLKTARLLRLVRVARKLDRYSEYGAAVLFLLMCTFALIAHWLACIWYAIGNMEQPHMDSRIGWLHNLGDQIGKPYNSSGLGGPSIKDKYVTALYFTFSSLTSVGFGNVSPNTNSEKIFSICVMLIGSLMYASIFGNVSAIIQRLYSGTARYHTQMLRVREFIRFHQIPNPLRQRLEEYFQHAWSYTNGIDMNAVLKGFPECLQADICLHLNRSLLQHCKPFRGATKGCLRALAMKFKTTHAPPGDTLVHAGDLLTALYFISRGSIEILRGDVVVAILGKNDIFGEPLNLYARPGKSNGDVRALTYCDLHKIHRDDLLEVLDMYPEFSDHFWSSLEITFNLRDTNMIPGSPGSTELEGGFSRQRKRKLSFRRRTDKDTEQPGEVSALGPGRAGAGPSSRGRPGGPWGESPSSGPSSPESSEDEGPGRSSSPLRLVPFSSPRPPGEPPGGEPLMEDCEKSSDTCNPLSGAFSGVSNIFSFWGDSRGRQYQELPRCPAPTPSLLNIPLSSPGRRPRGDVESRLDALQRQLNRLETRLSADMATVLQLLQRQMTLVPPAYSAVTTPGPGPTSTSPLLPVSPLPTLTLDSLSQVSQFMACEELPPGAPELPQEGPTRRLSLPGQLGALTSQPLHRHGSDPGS

SMILES | hERG current change (%, negative = inhibition) at 10uM
CN(C)CC(=O)N1c2ccccc2Sc2ccc(Cl)cc21.Cl | -7.73%
Cc1ccc(OCCC(=O)OCC(=O)Nc2c(C)nn(-c3ccccc3)c2C)cc1 | 3.91%
COCCNC(=O)c1c[nH]n2c(=O)cc(C3CCN(C(=O)OC(C)(C)C)CC3)nc12 | 7.5%
Cc1noc(C)c1COC(=O)C1CCN(C(=O)c2ccc(Cl)cc2)CC1 | -38%
COc1cccc(-n2c(Cc3cc(=O)[nH]c(=O)[nH]3)nnc2SCc2cccnc2)c1 | 4%
Cc1ccc(C(=O)CSc2nnc(C3CC3)n2C2CC2)s1 | -12.4%
O=C(Nc1nnc(S(=O)(=O)N2CCCCCC2)s1)c1ccccc1 | 13.9%
Cc1cc(C)cc(N2CCCC2=O)c1 | 16.3%
CN1CCN(S(=O)(=O)c2ccc(-c3ccccc3)cc2)CC1 | 3.51%
O=C(NNC(=O)c1cc(S(=O)(=O)N2CCCCC2)ccc1Cl)c1ccccc1O | -11%
COc1ccc(C(=O)NCc2cn3c(C)csc3n2)cc1OC | -3.3%
Cc1ccc(S(=O)(=O)N2CCC(C(=O)N[C@@H](Cc3ccccc3)C(=O)O)CC2)cc1 | -0.0166%
OCC[C@H]1C[C@@H](O)[C@H](O)[C@@]2(OCCc3ccccc32)O1 | 9.73%
Cc1ccc(NC(=O)CSc2nc3ccccc3c(=O)n2CCCC(=O)N2CCCC2)cc1 | -44.5%
Cc1ccc(C(O)c2ccncc2)cc1 (stereo not shown) | 9.16%
CC(C)NS(=O)(=O)c1ccc(OCC(=O)Nc2ccc3c(c2)OCO3)cc1 | 0.616%
O=C(Nc1ccc(N2CCOCC2)c(Cl)c1)c1cccnc1 | 0.0219%
O=C(Cn1ccc([N+](=O)[O-])n1)NCc1cccs1 | -7.44%
O=C(Cn1cnc2ccccc2c1=O)NCC(=O)N1CCC2(CC1)OCCO2 | -8.99%
COc1ccccc1-n1c(N)c(C(=O)NCC2CCCO2)c2nc3ccccc3nc21 (stereo not shown) | 0.889%
COc1ccccc1-n1c(SCc2cc(=O)oc3cc(O)ccc23)nc2ccccc2c1=O | -11.1%
CCOC(=O)c1c(/N=C/c2ccccc2O)sc2c1CCC2 | 7.89%

SMILES | hERG current change (%, negative = inhibition) at 10uM
O=C(Cc1ccc([N+](=O)[O-])cc1)NCc1ccccn1 | -4.02%
O=C1C2CCCCC2C(=O)N1c1ccc(NC2CCCCC2)c([N+](=O)[O-])c1 (stereo not shown) | 3.18%
O=S(=O)(NC1CCSc2ccccc21)c1ccccc1 (stereo not shown) | -14.1%
Cl.O=C(NCc1nc2ccccc2[nH]1)c1c(F)c(F)c(F)c(F)c1F | 1.09%
CN(C)S(=O)(=O)N1CCN(S(=O)(=O)c2ccc(F)cc2)CC1 | 5.97%
CC1=Nc2cc(C(=O)NCC3CCCO3)ccc2Sc2ccc(C)cc21 (stereo not shown) | -2.64%
O=C(Cc1ccccc1)NCCc1cccc(Cl)c1 | -15.2%
O=C(Nc1ccc(Oc2ccccc2)nc1)C1CCCCN1Cc1cccc(OCCO)c1 (stereo not shown) | 7.28%
O=C(NCc1ccccc1Cl)C1CCCN1C(=O)NC1CCCCC1 (stereo not shown) | 13.2%
COC(=O)CCC(=O)OC1(C)C(=O)C2=CN(C(CO)CO)C(c3ccc(OC)cc3)=CC2=C(Br)C1=O (stereo not shown) | 0.962%
Cc1nn(CC(=O)NCCc2ccc(Cl)cc2)c(C)c1[N+](=O)[O-] | -24.1%
CC(=O)Nc1ccc(S(=O)(=O)N2CCCCC2C(=O)O)cc1 (stereo not shown) | 17.9%
COc1cc2[nH]c(=O)n(CCC(=O)N3CCN(Cc4ccc5c(c4)OCO5)CC3)c(=O)c2cc1OC | 1.83%
COc1cccc(/C=N/n2c(C)nc3ccccc3c2=O)c1O | -3.03%
C=CCNC(=O)COc1cc(C)cc(C)c1C | 35.1%
CC1CCCN(C(=O)COC(=O)c2ccc3[nH]c4c(c3c2)CCCC4)C1 (stereo not shown) | -1.02%
CCC(C)NC(=O)C(Cc1ccccc1)NS(=O)(=O)c1cccc2nsnc12 (stereo not shown) | -4.67%
CN(/C=C/C(=C/C=[N+](C)c1ccccc1)OCCCS(=O)(=O)[O-])c1ccccc1 | 10.4%
Cn1nc(-c2ccc(N3CCN(CCO)CC3)c([N+](=O)[O-])c2)c2ccccc2c1=O | -1.73%
COc1ccc(C(CC(=O)O)n2cnnn2)cc1.Cl (stereo not shown) | -6.02%
O=C(CCN1C(=O)S/C(=C\c2ccccc2)C1=O)Nc1ccc(O)cc1C(=O)O | 19.6%
CCN(C(=O)CN1CCN(c2ccccc2OC)CC1)c1c(N)n(Cc2ccccc2)c(=O)[nH]c1=O | 8.19%

SMILES | hERG current change (%, negative = inhibition) at 10uM
COc1ccc(NC(=O)CSc2nnnn2C2CCCC2)cc1 | 8.06%
O=C(NCc1ccc2c(c1)OCO2)C1CC(=O)N(C2CCCC2)C1 (stereo not shown) | 4.86%
CC(C)(C)N(Cc1ccccc1)C(=O)COC(=O)c1ccc(Br)o1 | 13.6%
O=C(NCC1CCCO1)c1nn2c(c1Cl)NC(c1ccc(F)cc1)CC2C(F)(F)F (stereo not shown) | -29.5%
O=C(c1cc(S(=O)(=O)N2CCN(c3ccccc3)CC2)ccc1Cl)N1CCCC(C(F)(F)F)C1 (stereo not shown) | -16.2%
Cc1ccc(N2CCN(S(=O)(=O)c3ccc4oc(=O)ccc4c3)CC2)cc1Cl | 3.42%
C/C(CC(=O)Nc1c(C)cc(C)cc1C)=N\NC(=O)c1cnccn1 | 8.75%
CC(=O)N1CCc2cc(S(=O)(=O)Nc3ccc(C)cc3C)ccc21 | 4.5%
COc1ccc2cc(CN(Cc3cccnc3)Cc3nnnn3Cc3ccccc3)c(=O)[nH]c2c1 | -74.4%
O=C(Nc1ccc(S(=O)(=O)NCc2ccco2)cc1)c1ccncc1 | 3.33%
C/C(=N\NC(=O)C(N)=O)c1cccc([N+](=O)[O-])c1 | 11.8%
CCN(C(=O)c1cn(C)c(=O)c2cc(OC)c(OC)cc12)c1ccccc1C | -16%
CCOC(=O)c1c(C)[nH]c(C(=O)CN2C(=O)C(=O)N(CC(C)C)C2=O)c1C | 12.7%
CC(=O)Nc1nnc(S(=O)(=O)N2CCN(c3ccc(Cl)cc3[N+](=O)[O-])CC2)s1 | 7.86%
Cc1ccc(N2CCN(C(=O)c3cc(C(=O)c4ccccc4C)c[nH]3)CC2)c(C)c1 | 14.8%
COCCCNC(=O)C1c2ccccc2Oc2ccccc21 | 13.6%
Nc1[nH][nH]c(=O)c1N=Nc1cccc(Cl)c1 | 16.9%
CC(C)Cn1c(=O)n(C)c(=O)c2[nH]cnc21 | 10.7%
COc1cc(C(=O)OCCC(C)C)cc(OC)c1O | -1.55%
CC1CC(NC(=O)CC#N)CC(C)(C)C1 (stereo not shown) | 21.3%
COc1ccccc1NC(=O)Cn1c(=O)c(N(C)C)c(N)n(C)c1=O | 21.9%
Cc1cc(C)cc(OCC(=O)OC/C(O)=C(\C#N)c2nc3ccccc3[nH]2)c1 | 15.9%

SMILES | hERG current change (%, negative = inhibition) at 10uM
CC(C)c1ccc(/C=C/C(=O)CCC(=O)O)cc1 | 17.9%
CC1(C)CC(=O)C2=C(C1)OC(=O)CC2c1cccs1 (stereo not shown) | -4.61%
CN(CCC#N)C(=O)CSc1nnc(-c2c[nH]c3ccccc23)o1 | 4.76%
COCCNC(=O)c1cn(Cc2c(F)cccc2Cl)nn1 | 18.7%
CCc1cc(C(=O)c2ccc(OC)cc2)c(N)s1 | -12.7%
C#CCOc1ccccc1/C=N/NC(=O)c1ccccc1OCc1ccccc1 | 12.1%
Cc1nc(C)c(-c2csc(NCc3ccco3)n2)s1 | -10.9%
COC(=O)c1ccc(N2CCOCC2)c(NC(=O)c2cccs2)c1 | -5.27%
CC(=O)N1CCOc2ccc(S(=O)(=O)Nc3ncccc3C)cc21 | 14%
O=c1[nH]c2cccnc2n1-c1ccc([N+](=O)[O-])cc1 | 0.0443%
S=C(NCCCNC(=S)Nc1ccccc1)Nc1ccccc1 | 8.91%
CC(Sc1sc(=S)sc1SC(C)C(=O)O)C(=O)O (stereo not shown) | -0.115%
CC[C@H](C)[C@@H](CNC)NC[C@@H](Cc1ccc(O)cc1)NCC(C)(C)C | -1.92%
Cn1c(=O)oc2cc(S(=O)(=O)N3CCC(C(=O)N4CCN(c5ccc(F)cc5)CC4)CC3)ccc21 | -0.314%
Cc1ccc(C2=NN(C(=O)c3cccs3)C(c3ccccc3O)C2)cc1 (stereo not shown) | 34%
CC(=O)c1ccc(S(=O)(=O)N(C)CC(=O)N2CCCCCC2)cc1 | 17.8%
Cc1ccc(C(=O)CCC(=O)Nc2ccccc2F)cc1 | 10.6%
Cc1noc(C)c1COC(=O)c1cccc(S(=O)(=O)N2c3ccccc3CC2C)c1 (stereo not shown) | 3.14%
CCOc1ccccc1C(=O)N(CN1CCCC1=O)c1ccc(C)c(Cl)c1 | -5.99%
Cc1ccc(-c2c3c([nH]c(=S)c2C#N)CCCC3)o1 | 15.4%
Nc1ccc2nc(COc3ccccc3)[nH]c2c1 | 11.2%
CC1=C(C(=O)Nc2ccccn2)C(c2ccccc2)n2ncnc2N1 (stereo not shown) | 13.7%
